{
  "source": "PubChem BioAssay AID504333",
  "about": "(National Center for Advancing Translational Sciences (NCATS), 2011)",
  "note": "Screen size: about 360,000 compounds; about 16,000 (4.4%) were called active. This list was built around the results that the source calls inconclusive (neither active nor inactive); the mix of calls is not that of the screen. Calls come from the whole dose curve; as a rule, active = well fitted inhibition curve with a large enough effect; inconclusive = small, poorly fitted or top-dose-only effect; inactive = no such curve, though single readings can be large or run the other way. A potency beside an inconclusive call is a rough fit, not a confirmed value. Potency is the fitted concentration of half-maximal effect; tags give direction and shape of the fitted curve.",
  "data": [
    {"target": "Bromodomain adjacent to zinc finger domain protein 2B (Homo sapiens) (UniProt Q9UIF8)", "sequence (Q9UIF8 whole entry, looked up, the tested form may be a part)": "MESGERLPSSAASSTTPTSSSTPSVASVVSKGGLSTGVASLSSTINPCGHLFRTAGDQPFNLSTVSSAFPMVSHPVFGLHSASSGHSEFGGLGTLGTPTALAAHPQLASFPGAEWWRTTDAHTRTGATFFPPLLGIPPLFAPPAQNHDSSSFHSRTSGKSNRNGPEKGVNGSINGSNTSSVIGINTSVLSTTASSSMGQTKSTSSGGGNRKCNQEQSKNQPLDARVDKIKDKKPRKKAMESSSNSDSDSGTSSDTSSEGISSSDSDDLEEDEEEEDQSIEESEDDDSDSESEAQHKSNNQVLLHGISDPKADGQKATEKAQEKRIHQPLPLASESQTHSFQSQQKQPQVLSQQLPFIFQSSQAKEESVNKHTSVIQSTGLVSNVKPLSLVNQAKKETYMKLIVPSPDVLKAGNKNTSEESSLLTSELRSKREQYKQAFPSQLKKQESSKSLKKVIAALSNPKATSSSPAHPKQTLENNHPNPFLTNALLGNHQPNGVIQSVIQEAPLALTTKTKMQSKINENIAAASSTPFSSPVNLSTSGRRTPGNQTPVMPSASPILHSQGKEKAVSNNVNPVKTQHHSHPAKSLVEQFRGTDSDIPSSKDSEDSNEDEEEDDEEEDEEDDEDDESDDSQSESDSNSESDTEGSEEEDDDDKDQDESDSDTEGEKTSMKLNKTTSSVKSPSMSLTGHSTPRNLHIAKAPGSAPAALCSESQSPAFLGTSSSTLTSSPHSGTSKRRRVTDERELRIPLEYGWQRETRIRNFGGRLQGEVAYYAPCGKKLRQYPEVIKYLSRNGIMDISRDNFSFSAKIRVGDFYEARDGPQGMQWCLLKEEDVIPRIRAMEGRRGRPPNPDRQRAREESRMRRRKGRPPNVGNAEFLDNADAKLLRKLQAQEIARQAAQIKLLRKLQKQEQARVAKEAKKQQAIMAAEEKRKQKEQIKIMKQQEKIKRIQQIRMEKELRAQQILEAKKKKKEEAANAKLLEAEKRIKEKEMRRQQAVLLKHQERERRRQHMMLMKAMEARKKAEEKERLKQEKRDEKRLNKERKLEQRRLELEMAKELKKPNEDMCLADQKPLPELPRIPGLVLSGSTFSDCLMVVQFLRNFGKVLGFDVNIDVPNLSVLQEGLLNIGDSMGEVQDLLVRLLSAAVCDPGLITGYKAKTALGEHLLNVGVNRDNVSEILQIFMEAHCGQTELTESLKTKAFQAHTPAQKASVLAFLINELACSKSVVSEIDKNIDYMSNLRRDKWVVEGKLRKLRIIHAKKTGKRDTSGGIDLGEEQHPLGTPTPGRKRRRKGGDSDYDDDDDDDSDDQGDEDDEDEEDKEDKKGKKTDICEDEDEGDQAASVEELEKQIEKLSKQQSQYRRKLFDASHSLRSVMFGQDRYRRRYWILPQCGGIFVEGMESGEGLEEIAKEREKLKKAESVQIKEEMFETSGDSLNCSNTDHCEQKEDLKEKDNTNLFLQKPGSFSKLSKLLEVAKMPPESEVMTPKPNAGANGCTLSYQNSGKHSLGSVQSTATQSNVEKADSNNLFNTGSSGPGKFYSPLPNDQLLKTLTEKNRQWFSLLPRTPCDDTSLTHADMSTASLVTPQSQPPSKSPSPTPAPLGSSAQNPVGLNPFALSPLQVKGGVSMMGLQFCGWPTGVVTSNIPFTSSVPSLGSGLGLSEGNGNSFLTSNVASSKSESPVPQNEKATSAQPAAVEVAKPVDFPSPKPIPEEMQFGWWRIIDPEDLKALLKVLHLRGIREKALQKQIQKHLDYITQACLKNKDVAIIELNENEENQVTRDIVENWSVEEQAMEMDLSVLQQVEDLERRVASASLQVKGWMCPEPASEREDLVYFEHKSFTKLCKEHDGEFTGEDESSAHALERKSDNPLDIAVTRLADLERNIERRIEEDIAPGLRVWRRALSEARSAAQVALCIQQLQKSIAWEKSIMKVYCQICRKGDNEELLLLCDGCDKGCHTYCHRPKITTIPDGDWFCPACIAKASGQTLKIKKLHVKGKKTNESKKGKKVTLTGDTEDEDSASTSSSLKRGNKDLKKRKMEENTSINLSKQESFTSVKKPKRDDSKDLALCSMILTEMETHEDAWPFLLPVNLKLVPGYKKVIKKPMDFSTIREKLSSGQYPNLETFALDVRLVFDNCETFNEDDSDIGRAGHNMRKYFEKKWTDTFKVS", "assay": "qHTS Assay for Inhibitors of BAZ2B; note: nearly all actives have a fitted effect of over 60% in size", "details": "AlphaScreen BAZ2B-H3K14Ac peptide displacement; series mostly up to 114 µM", "procedure,_shortened": "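In this displacement format the biotinylated H3(5-23) peptide acetylated at Lys14 serves as ligand at 50 nM, with BAZ2B at 50 nM in PBS pH 7.4 containing 0.01% Tween-20. Donor and acceptor beads are 10 ug/mL final.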", "values": [
      {"smiles": "CC(=O)c1ccc(O)c(CSc2nncn2C)c1", "Potency": "inconclusive: 56.2 µM [inhibitor, partial curve]"},
      {"smiles": "COc1ccc(/C=N/NC(=O)c2cc(C34CC5CC(CC(C5)C3)C4)[nH]n2)cc1OC", "Potency": "inconclusive: 89.1 µM [inhibitor, single point]"},
      {"smiles": "CN1/C(=C\\C(=S)NC(=O)c2ccccc2Cl)C(C)(C)c2ccccc21", "Potency": "active: 11.2 µM"},
      {"smiles": "O=C(CCC1N=C2c3ccccc3N=C(SCc3ccccc3Cl)N2C1=O)N1CCN(c2ccccc2)CC1", "note": "(stereo not given)", "Potency": "inconclusive: 39.8 µM [inhibitor, partial curve]"},
      {"smiles": "COc1ccc(CN(Cc2ccco2)c2cnc(S(C)(=O)=O)nc2C(=O)Nc2ccc(C)c(C)c2)cc1", "Potency": "inconclusive: 79.4 µM [inhibitor, single point]"},
      {"smiles": "COc1ccc(N2CCC(CNC(=S)Nc3cccc(C)c3)C2)cc1", "note": "(stereo not given)", "Potency": "active: 12.6 µM"},
      {"smiles": "CCOC(=O)c1cccc(NC(=O)C2CCN(c3ncnc4c3nc3n4CCCCC3)CC2)c1", "Potency": "inconclusive: 89.1 µM [inhibitor, single point]"},
      {"smiles": "Cc1cccc(CSc2nc3cccnc3n2Cc2ccc(C(=O)NCc3ccco3)cc2)c1", "Potency": "inconclusive: 79.4 µM [inhibitor, single point]"},
      {"smiles": "Cc1cc(OCC(=O)Nc2cc(-c3nn4c(C)nnc4s3)ccc2C)ccc1Cl", "Potency": "inactive"},
      {"smiles": "COc1cc(/C=C2\\SC(=S)N(N(C)c3ccccc3)C2=O)ccc1O", "Potency": "inconclusive: 8.91 µM [inhibitor, full curve, poor fit]"},
      {"smiles": "CC(OC(=O)CN1C(=O)COc2ccccc21)C(=O)NCc1ccc(F)cc1", "note": "(stereo not given)", "Potency": "inactive"},
      {"smiles": "Cc1nnc(SCc2cc(=O)[nH]c(=S)[nH]2)s1", "Potency": "inconclusive: 79.4 µM [inhibitor, partial curve]"},
      {"smiles": "CC(=O)/C(=N\\Nc1ccccc1Cl)Sc1nnc(-c2ccccc2)n1-c1ccccc1", "Potency": "inactive"},
      {"smiles": "COc1ccc(/C=C/C(=O)Nc2ccc(OC)nc2)cc1", "Potency": "inactive"},
      {"smiles": "Cc1ccc2c(c1)c1c3n2CCCN(Cc2ccccc2)C3CCC1", "note": "(stereo not given)", "Potency": "active: 10 µM"},
      {"smiles": "Nc1c2c(nc3ccccc13)N(C1CCCCC1)CC2", "Potency": "inconclusive: 89.1 µM [inhibitor, single point]"},
      {"smiles": "O=C1N=c2ccccc2=C1c1sc(=S)n(NC(=O)c2ccccc2)c1O", "Potency": "inconclusive: 39.8 µM [inhibitor, partial curve]"},
      {"smiles": "Cc1ccc(-c2nnc(N3CCN(c4ccccn4)CC3)c3ccccc23)cc1", "Potency": "inconclusive: 79.4 µM [inhibitor, single point]"},
      {"smiles": "CNCC(O)COc1ccccc1", "note": "(stereo not given)", "Potency": "inactive"},
      {"smiles": "Cc1cccc(C)c1OCCn1c(C2CC(=O)N(Cc3ccc(F)cc3)C2)nc2ccccc21", "note": "(stereo not given)", "Potency": "inconclusive: 79.4 µM [inhibitor, partial curve]"},
      {"smiles": "O=C1c2ccccc2C(=O)N1/N=C/c1ccc(O)c(O)c1O", "Potency": "inconclusive: 2 µM [inhibitor, full curve, poor fit]"},
      {"smiles": "CC(CNC(=O)c1ccc2c(c1)nc1n2CCOC1)c1ccccc1", "note": "(stereo not given)", "Potency": "inactive"},
      {"smiles": "Cn1c(=O)c2[nH]c(N/N=C(/C#N)C(N)=O)nc2n(C)c1=O", "Potency": "inconclusive: 89.1 µM [inhibitor, single point]"},
      {"smiles": "Cc1ccc(NC(=O)Cn2cc(S(=O)(=O)c3ccccc3)c(=O)c3cc4c(cc32)OCO4)cc1", "Potency": "inconclusive: 89.1 µM [inhibitor, single point]"},
      {"smiles": "O=C(Nc1c(Cl)cccc1Cl)c1cc(-c2cccc(O)c2)on1", "Potency": "inconclusive: 56.2 µM [inhibitor, single point]"},
      {"smiles": "Cc1cccc(-c2c3c(=O)n(C)c(=O)n(C)c3c3cnc4ccccc4n23)c1", "Potency": "inactive"},
      {"smiles": "CN1CCC(OC(=O)c2cc3cc(Cl)cc(Cl)c3oc2=O)CC1", "Potency": "inactive"},
      {"smiles": "COc1ccc(C2c3[nH]c4ccc(OC)cc4c3CCN2C(=O)Nc2ccccc2)cc1", "note": "(stereo not given)", "Potency": "inconclusive: 50.1 µM [inhibitor, partial curve]"},
      {"smiles": "O=C(N=C1SC2CS(=O)(=O)CC2N1CCc1ccc(F)cc1)C1CCCCC1", "note": "(stereo not given)", "Potency": "inactive"},
      {"smiles": "CCOC(=O)c1cnc2ccc(OC)cc2c1Nc1ccc2c(c1)OCCO2", "Potency": "inconclusive: 44.7 µM [inhibitor, partial curve]"},
      {"smiles": "COc1cccc(NS(=O)(=O)c2ccc3c(c2)CCCN3C(=O)C2CCC2)c1", "Potency": "inactive"},
      {"smiles": "Cc1cccc(NC(=O)CSc2nnc(NC(=O)c3ccco3)s2)c1", "Potency": "inconclusive: 89.1 µM [inhibitor, single point]"},
      {"smiles": "O=C(/C=C/c1cn(CC(O)CN2CCCCCC2)c2ccccc12)c1ccc(Br)cc1", "note": "(stereo not given)", "Potency": "inconclusive: 12.6 µM [inhibitor, full curve, poor fit]"},
      {"smiles": "O=C1NC(=S)SC1=C1CCCC1", "Potency": "active: 31.6 µM"},
      {"smiles": "CCCc1[nH]c(=O)c(C#N)c2c1CCCC2", "Potency": "inconclusive: 89.1 µM [inhibitor, single point]"},
      {"smiles": "Cc1ccc(-c2nc3ccccn3c2Nc2ccc3c(c2)OCO3)o1", "Potency": "active: 35.5 µM"},
      {"smiles": "O=C(O)CCC(=O)NCCn1c(-c2ccccc2)csc1=Nc1ccccc1", "Potency": "inconclusive: 79.4 µM [inhibitor, single point]"},
      {"smiles": "CC(=O)c1cccc(NS(=O)(=O)c2ccc(N/C=C/C(=O)c3ccc(F)cc3)cc2)c1", "Potency": "inconclusive: 44.7 µM [inhibitor, partial curve]"},
      {"smiles": "NC(=S)N/N=C/c1ccccc1OCCSc1ccc(Cl)cc1", "Potency": "inconclusive: 35.5 µM [inhibitor, partial curve]"},
      {"smiles": "Cn1ncc(N=Cc2c(O)ccc3ccccc23)c1C(=O)Nc1cccc(Cl)c1", "Potency": "active: 50.1 µM"},
      {"smiles": "Cc1cc(C(=O)OCC(=O)NCc2ccccc2)c(C)o1", "Potency": "inconclusive: 79.4 µM [inhibitor, single point]"},
      {"smiles": "Cc1cc(Cl)c(C(=O)Nc2cccc(C(F)(F)F)c2)c(C)n1", "Potency": "inconclusive: 7.08 µM [inhibitor, single point]"},
      {"smiles": "O=C(Nc1ccc(S(=O)(=O)Nc2nccs2)cc1)c1cc(-c2ccccc2)nc2ccccc12", "Potency": "inconclusive: 31.6 µM [inhibitor, full curve]"},
      {"smiles": "CCNS(=O)(=O)c1cc(S(C)(=O)=O)ccc1Cl", "Potency": "inactive"},
      {"smiles": "CCC(=O)Nc1sc(Cc2ccc3c(c2)OCO3)c(C)c1C(N)=O", "Potency": "inactive"}
    ]}
  ]
}
